Assay results taken from the supplement of paper PMC4466236.
The full ranking holds about 33,000 sequences; the median of “E-score (dimensionless, -0.5 to 0.5)” is about -0.058, and the highest 2% start at about 0.35. This is one part of the list.

What follows are sequences tested on MvaT (assay: PBM 8-mer E-score (mean of HK and ME arrays) (E-score (dimensionless, -0.5 to 0.5)); higher = stronger relative binding preference; most listed sequences are background and not binding sites).
Outline: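 Full-length P. aeruginosa MvaT carrying an N-terminal glutathione S-transferase tag was tested by protein binding microarray following a previously described protocol. Two universal double-stranded 60-mer arrays, ME and HK, were used, each with a constant 25-mer primer region and a variable 35-mer region covering all 8-mers. The rank-based E-score is the mean of the two arrays, parsed with a custom script. Its range runs from -0.5 to 0.5 for each 8-mer.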

| Sequence | PBM 8-mer E-score |
| --- | --- |
| CTTTTTCA | -0.00205 |
| ACTGATTG | 0.139 |
| AACCTATT | 0.167 |
| AGGGAACG | -0.228 |
| CCCTAAGA | -0.184 |
| CCATGATC | -0.205 |
| ATCCACCC | 0.00492 |
| TCAGTGAA | -0.0378 |
| ACCTGGCG | -0.257 |
| GCTAGGGA | -0.249 |
| GGCCTAAC | -0.288 |
| CAACTGCC | -0.132 |
| ATTCTGGC | -0.00876 |
| AAAGAAAC | 0.143 |
| GATCCAGC | -0.0939 |
| AAAAATCC | -0.0237 |
| CCACGTAC | -0.12 |
| CAGCGAGA | -0.018 |
| ATGAGCAC | 0.00796 |
| ACGTGAAG | 0.0431 |
| CGGGGAAG | -0.29 |
| AGCTATAA | 0.155 |
| CTTTTTTA | 0.216 |
| CAACATAG | 0.178 |
| CAAACCTA | 0.0792 |

| Sequence | PBM 8-mer E-score |
| --- | --- |
| AGCATTCC | -0.107 |
| TGATATCA | 0.178 |
| ATTATGCG | 0.166 |
| ATAGGATC | -0.115 |
| ACTGTGAG | -0.00755 |
| CTATCACA | -0.0632 |
| GCTTACCA | -0.00565 |
| ACCTACTA | 0.00365 |
| TTACCGAA | 0.017 |
| GCGTCTCA | -0.242 |
| ACCGCCCA | -0.125 |
| AAGAGACA | 0.0388 |
| AACAGGGC | -0.0721 |
| CCGGGGTA | -0.122 |
| CCAGGGGG | -0.358 |
| AATGTGGG | 0.11 |
| ACTGGCCC | -0.233 |
| GCGAACAA | 0.127 |
| CTCAAATC | 0.024 |
| AACCAAAG | 0.011 |
| CCACGGCC | -0.305 |
| CGGGCATA | -0.0997 |
| AAGCTGCG | -0.136 |
| TAACCGGA | 0.0717 |
| CACTACAC | 0.183 |

| Sequence | PBM 8-mer E-score |
| --- | --- |
| CGTTTGGA | 0.0127 |
| CTTTGGCC | -0.181 |
| ACCTTGAT | 0.0589 |
| TGATGTAA | 0.0749 |
| GTGGTTCA | -0.161 |
| AATGAGAC | -0.127 |
| TCAACCAA | 0.0129 |
| ATTACGTA | 0.193 |
| GTTAGAAC | 0.136 |
| AGCTCGGG | -0.184 |
| GAGTAAAC | 0.00332 |
| AGTACCAG | -0.0318 |
| AGTCTGTG | -0.087 |
| ACCTCTGC | -0.22 |
| GGACGTGA | -0.13 |
| AATGCTTC | -0.0965 |
| AATCAGTA | 0.253 |
| GCGATGTA | -0.0216 |
| GATTGAAA | 0.12 |
| AGCCTTAG | -0.155 |
| AGGTGTGC | -0.0777 |
| ACATTATG | 0.249 |
| CCCGTGCA | -0.0425 |
| CCTCAGAG | -0.297 |
| AGTCTGGC | -0.0658 |

| Sequence | PBM 8-mer E-score |
| --- | --- |
| CGAACATC | -0.132 |
| GTCCCAGA | -0.0405 |
| ACGACAGT | -0.0945 |
| AATACTCA | 0.0804 |
| TACGCGCA | 0.1 |
| ATAGTGGC | 0.101 |
| ATAGGGGG | -0.218 |
| CCCAAAAG | -0.0849 |
| AAGGCTGG | -0.135 |
| CTCACGAC | -0.188 |
| AGTGGAGA | -0.0672 |
| ACCGCAGA | -0.0434 |
| GCTTATAA | 0.418 |
| AGGTCTAT | -0.099 |
| AGATCAAT | 0.144 |
| TCTCGAGA | 0.0472 |
| AGCCGAGG | -0.237 |
| AATTTGAA | 0.268 |
| GATCTAGC | 0.0422 |
| CCGATAAG | -0.0846 |
| CTATATGC | 0.227 |
| CGACGCTA | -0.0964 |
| AACATACT | 0.207 |
| TAACACCA | 0.115 |
| CATAAGCA | 0.0445 |

| Sequence | PBM 8-mer E-score |
| --- | --- |
| ACATGTTA | 0.269 |
| CTAGTATC | -0.0351 |
| GAACATCA | -0.0573 |
| GCTCGTCC | -0.331 |
| ATGTGTAA | 0.297 |
| CAGTGCGC | -0.0407 |
| ACGACGAC | 0.0165 |
| CGTGATTA | 0.179 |
| GAGTTAAC | 0.254 |
| CCAGGCGC | -0.338 |
| AGGCTATG | -0.175 |
| CTTAACGC | 0.0119 |
| ACCCCAGG | -0.231 |
| CTGGAACC | -0.182 |
| AACCAGCT | -0.14 |
| AGTCAGAT | -0.0668 |
| GAAGCATC | -0.289 |
| CCAATGGA | -0.208 |
| CAGCTGGC | -0.326 |
| CGTTGACC | -0.113 |
| AGCCGCCG | -0.291 |
| ATACTGAA | 0.157 |
| AACACCTG | -0.244 |
| AAGGAACG | -0.228 |
| ATCATACG | 0.0687 |

| Sequence | PBM 8-mer E-score |
| --- | --- |
| ACTTCAGG | 0.0381 |
| AGAACATA | 0.172 |
| ATACGAGC | -0.0077 |
| CATACTGG | -0.015 |
| GTTCTGTA | 0.106 |
| CATGCTGA | -0.0933 |
| CAACGCCA | 0.032 |
| TTCCCAAA | 0.183 |
| TAAAAAGA | 0.241 |
| ACGTGCGC | -0.18 |
| ATCCGGCC | -0.247 |
| CTTGACAC | -0.095 |
| GCCCTATA | 0.00721 |
| CTTGAGCA | -0.103 |
| ACGGCAAT | 0.218 |
| CATTTGAC | -0.0544 |
| CCGACGGA | -0.26 |
| GTAGGACA | -0.0384 |
| TCACGTGA | -0.00307 |
| GTCCCAAA | 0.121 |
| CTAACTAC | 0.187 |
| CAGGCTCG | -0.325 |
| GGAACAAA | 0.0729 |
| GAAAATTA | 0.304 |
| GCGACTCA | -0.247 |

| Sequence | PBM 8-mer E-score |
| --- | --- |
| AGGCGAGA | -0.0992 |
| AGAATGAG | -0.0894 |
| ACAAGAAA | 0.0439 |
| ACCAGGAC | -0.0791 |
| GACACAAA | 0.157 |
| CCTTTCTA | -0.107 |
| CGTAGGAC | -0.118 |
| AATCCATA | 0.164 |
| CGCGATAC | -0.118 |
| CGGAATCC | -0.157 |
| CTCGTGCA | -0.141 |
| CGACTAGA | -0.203 |
| CCAGGCTA | -0.159 |
| ACTCACCG | -0.0979 |
| CCACGTCG | -0.195 |
| AGAATCAC | -0.133 |
| GCTTACTA | -0.131 |
| ACAACGGG | -0.0207 |
| AAAGCTCA | -0.146 |
| AGACAATC | 0.049 |
| GAAACCCA | -0.213 |
| CTTAACAA | 0.166 |
